# Test results as given in a collection of fitness landscapes (doi:10.1016/j.celrep.2020.107928).
# The full ranking holds about 81,000 sequences; the median of “one-hybrid fitness for binding NBS DNA” is about -0.1, and the highest 2% start at about 0.36. The list shows a part of the results.
# B1: Caulobacter ParB omega fusion; a variant is named by its letters at X, in order, B8GW30 (parent)
# chain: MESVVVGEPGMSEGRRGLGRGLSALLGEVDAAPAQAPGEQLGGSREAPIEILQRNPDQPRRTFREEDLEDLSNSIREKGVLQPILVRPSPDTAGEYQIVAGERAWRAAQRAGLKTVPIMVRELDDLAVLEIGIIENVQRADLNVLEEALSYKVLMEKFERTQENIAQTIGKSXSHVANXMRLLXLPDEVQSYLVSGELTAXHARAIAAAADPVALAKQIIEGGLSVRETEALARKAPNLSAGKSKGGRPPRVKDTDTQALESDLSSVLGLDVSIDHRGSTGTLTITYATLEQLDDLCNRLTRGI
# Variants of: B1
# Assay: one-hybrid fitness for binding NBS DNA (the Noc-binding site; scaled: cognate 1, non-cognate 0); higher = stronger binding
# Details: with NBS DNA site
# In short: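 Fitness here means the log change in variant-to-wild-type read ratio between plasmids sequenced before and after selection. That scale was set so cognate equals 1 and non-cognate equals 0. The selection was a bacterial one-hybrid screen of Caulobacter ParB libraries, four specificity codons randomised, in E. coli USO carrying a HIS3 reporter with the site 19 bp from the promoter, grown 48 hours at 37°C on M9-minus-histidine with 0.1 mM IPTG and 5 mM 3-AT.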
row,Variant,one-hybrid fitness for binding NBS DNA
1,PIYD,≤ 0.2
2,QTTC,0.223
3,YFSK,≤ 0.2
4,LHKM,≤ 0.2
5,YDSR,≤ 0.2
6,TKHQ,≤ 0.2
7,IPCL,≤ 0.2
8,CLCY,≤ 0.2
9,EKGG,≤ 0.2
10,QYKF,0.229
11,WLTR,≤ 0.2
12,FAYG,≤ 0.2
13,FNLA,0.335
14,SWYS,≤ 0.2
15,LLMS,≤ 0.2
16,VRAT,0.233
17,RLQQ,≤ 0.2
18,IYNG,≤ 0.2
19,RMLK,≤ 0.2
20,YVCR,≤ 0.2
21,TTMK,≤ 0.2
22,WLSG,≤ 0.2
23,KMEF,≤ 0.2
24,ANVC,≤ 0.2

row,Variant,one-hybrid fitness for binding NBS DNA
1,IPGK,≤ 0.2
2,QAAL,≤ 0.2
3,HAQG,≤ 0.2
4,MNIL,≤ 0.2
5,PTKH,≤ 0.2
6,MFSG,≤ 0.2
7,LSAL,≤ 0.2
8,YCQN,≤ 0.2
9,IFME,≤ 0.2
10,RTRC,0.351
11,AAVR,≤ 0.2
12,MPIR,≤ 0.2
13,LAGI,≤ 0.2
14,IPNF,≤ 0.2
15,PDFC,≤ 0.2
16,LKLP,≤ 0.2
17,NIWR,≤ 0.2
18,SGAC,≤ 0.2
19,KVFY,≤ 0.2
20,LSYI,≤ 0.2
21,FKYG,≤ 0.2
22,IVHT,≤ 0.2
23,RQNA,0.251
24,VLKW,≤ 0.2

row,Variant,one-hybrid fitness for binding NBS DNA
1,HSWG,≤ 0.2
2,VREV,≤ 0.2
3,SICC,≤ 0.2
4,MTFN,≤ 0.2
5,EQAI,≤ 0.2
6,DGFS,≤ 0.2
7,RGIW,≤ 0.2
8,CGTD,≤ 0.2
9,RATE,≤ 0.2
10,SVCT,≤ 0.2
11,YQAG,≤ 0.2
12,GTAM,≤ 0.2
13,PQIR,≤ 0.2
14,RYIF,≤ 0.2
15,PIWN,≤ 0.2
16,ADEG,≤ 0.2
17,RKPH,≤ 0.2
18,WPHR,≤ 0.2
19,WQQS,≤ 0.2
20,TMRC,≤ 0.2
21,YKQT,≤ 0.2
22,RFTR,0.298
23,GPTK,≤ 0.2
24,RPPN,≤ 0.2

row,Variant,one-hybrid fitness for binding NBS DNA
1,EPHW,≤ 0.2
2,AADS,≤ 0.2
3,LFRP,≤ 0.2
4,RKPP,≤ 0.2
5,ACLM,≤ 0.2
6,MPGR,≤ 0.2
7,APFC,≤ 0.2
8,RGQP,≤ 0.2
9,DFSM,≤ 0.2
10,RMVY,≤ 0.2
11,RDGP,≤ 0.2
12,MYEK,≤ 0.2
13,YKLQ,≤ 0.2
14,HKVS,≤ 0.2
15,CGGS,≤ 0.2
16,FPTL,≤ 0.2
17,PLCR,≤ 0.2
18,DLYN,≤ 0.2
19,SWRM,≤ 0.2
20,AIDI,≤ 0.2
21,YSTC,≤ 0.2
22,PKNT,≤ 0.2
23,DPRH,≤ 0.2
24,SVPF,≤ 0.2

row,Variant,one-hybrid fitness for binding NBS DNA
1,KSTR,≤ 0.2
2,GAYS,≤ 0.2
3,LIKG,≤ 0.2
4,TCKF,≤ 0.2
5,MASF,≤ 0.2
6,SAAN,≤ 0.2
7,MALS,≤ 0.2
8,CGDA,≤ 0.2
9,RRMA,0.591
10,PWLN,≤ 0.2
11,RQSG,≤ 0.2
12,LNPW,≤ 0.2
13,QGWT,≤ 0.2
14,PSGW,≤ 0.2
15,LRLI,≤ 0.2
16,HFSS,≤ 0.2
17,WPQG,≤ 0.2
18,QRWG,≤ 0.2
19,PILE,≤ 0.2
20,KPGR,≤ 0.2
21,HTLD,≤ 0.2
22,NESS,≤ 0.2
23,VSHF,≤ 0.2
24,KLIV,≤ 0.2

row,Variant,one-hybrid fitness for binding NBS DNA
1,RQYR,0.368
2,QFFT,≤ 0.2
3,GRKC,≤ 0.2
4,DIPV,≤ 0.2
5,PMDW,≤ 0.2
6,YRHC,≤ 0.2
7,HGPL,≤ 0.2
8,TENF,≤ 0.2
9,RTFC,≤ 0.2
10,LIYG,≤ 0.2
11,YFLT,≤ 0.2
12,GHMS,≤ 0.2
13,RSHF,≤ 0.2
14,QQNA,0.421
15,MNFR,≤ 0.2
16,MKWS,≤ 0.2
17,QPRF,≤ 0.2
18,IHAT,≤ 0.2
19,HFNK,≤ 0.2
20,RISF,≤ 0.2
21,SPSI,≤ 0.2
22,IHMC,≤ 0.2
23,NNLI,≤ 0.2
24,PASY,≤ 0.2

row,Variant,one-hybrid fitness for binding NBS DNA
1,IGRS,≤ 0.2
2,ARCV,≤ 0.2
3,MDIT,≤ 0.2
4,IPLV,≤ 0.2
5,DPVQ,≤ 0.2
6,PVTE,≤ 0.2
7,WGCR,≤ 0.2
8,QIYF,≤ 0.2
9,RTWE,≤ 0.2
10,VNHF,≤ 0.2
11,DEST,≤ 0.2
12,CFNS,≤ 0.2
13,VSDL,≤ 0.2
14,RWLS,≤ 0.2
15,GAPP,≤ 0.2
16,RHMG,≤ 0.2
17,KCQT,≤ 0.2
18,RQKC,0.381
19,HAYC,≤ 0.2
20,FKNI,≤ 0.2
21,YSNE,≤ 0.2
22,HDQC,≤ 0.2
23,ITKF,≤ 0.2
24,KACT,≤ 0.2

row,Variant,one-hybrid fitness for binding NBS DNA
1,PQSV,≤ 0.2
2,QCPP,≤ 0.2
3,RVAW,≤ 0.2
4,LDEA,≤ 0.2
5,QKNE,≤ 0.2
6,LPAL,≤ 0.2
7,EGQS,≤ 0.2
8,VIAR,≤ 0.2
9,KTQI,≤ 0.2
10,RYCN,≤ 0.2
11,CMPI,≤ 0.2
12,QEHW,≤ 0.2
13,TIET,≤ 0.2
14,LVNT,≤ 0.2
15,SADF,≤ 0.2
16,NRYC,≤ 0.2
17,RGLA,≤ 0.2
18,APDA,≤ 0.2
19,HHQG,≤ 0.2
20,TKCG,≤ 0.2
21,KPSR,≤ 0.2
22,QRDE,≤ 0.2
23,GVSR,≤ 0.2
24,WPPG,≤ 0.2

row,Variant,one-hybrid fitness for binding NBS DNA
1,FGHA,≤ 0.2
2,SRKT,0.274
3,CAKK,≤ 0.2
4,VQTS,≤ 0.2
5,YDET,≤ 0.2
6,NCLC,≤ 0.2
7,RWHH,≤ 0.2
8,CFIR,≤ 0.2
9,RCFE,≤ 0.2
10,VEWR,≤ 0.2
11,TSVV,≤ 0.2
12,PRKK,≤ 0.2
13,NVCN,≤ 0.2
14,ATMM,≤ 0.2
15,RTVT,0.393
16,MLVV,≤ 0.2
17,LNTD,≤ 0.2
18,PYPE,≤ 0.2
19,QHND,≤ 0.2
20,TWTA,≤ 0.2
21,HFKR,≤ 0.2
22,TMLL,≤ 0.2
23,SSLR,≤ 0.2
24,QLPV,≤ 0.2

row,Variant,one-hybrid fitness for binding NBS DNA
1,DIET,≤ 0.2
2,LQTR,≤ 0.2
3,FSFS,≤ 0.2
4,KKKN,≤ 0.2
5,ETMC,≤ 0.2
6,WPVS,≤ 0.2
7,RWSC,≤ 0.2
8,QITG,≤ 0.2
9,YYIC,≤ 0.2
10,TLHK,≤ 0.2
11,IRLT,≤ 0.2
12,KLPL,≤ 0.2
13,MAMW,≤ 0.2
14,DDDT,≤ 0.2
15,RYNN,≤ 0.2
16,SMAT,≤ 0.2
17,SMHC,≤ 0.2
18,YALH,≤ 0.2
19,PTLT,≤ 0.2
20,IYPL,≤ 0.2
21,VDST,≤ 0.2
22,MAIW,≤ 0.2
23,QSYL,≤ 0.2
24,MCEG,≤ 0.2

row,Variant,one-hybrid fitness for binding NBS DNA
1,TCYE,≤ 0.2
2,HNLK,≤ 0.2
3,KELQ,≤ 0.2
4,SKNQ,≤ 0.2
5,SFEM,≤ 0.2
6,VEVP,≤ 0.2
7,LGTQ,≤ 0.2
8,RLCH,≤ 0.2
9,DSPC,≤ 0.2
10,MAKK,≤ 0.2
11,RFTE,≤ 0.2
12,KAQT,≤ 0.2
13,MLSE,≤ 0.2
14,IGVC,≤ 0.2
15,AING,≤ 0.2
16,RNPP,≤ 0.2
17,KKGA,≤ 0.2
18,PPGV,≤ 0.2
19,FKPN,≤ 0.2
20,YLVI,≤ 0.2
21,WATN,≤ 0.2
22,WHLS,≤ 0.2
23,EFSR,≤ 0.2
24,RNFI,≤ 0.2

row,Variant,one-hybrid fitness for binding NBS DNA
1,RLRK,≤ 0.2
2,WDRC,≤ 0.2
3,HWST,≤ 0.2
4,QPST,≤ 0.2
5,GAPK,≤ 0.2
6,SYPW,≤ 0.2
7,TFVV,≤ 0.2
8,ADQP,≤ 0.2
9,WGGL,≤ 0.2
10,KSPR,≤ 0.2
11,ICIS,≤ 0.2
12,KVSS,≤ 0.2
13,NNTM,≤ 0.2
14,HDLK,≤ 0.2
15,WQVL,≤ 0.2
16,LPLI,≤ 0.2
17,RKCF,≤ 0.2
18,DVLV,≤ 0.2
19,IIRA,≤ 0.2
20,YWPF,≤ 0.2
21,YMMC,≤ 0.2
22,TGQY,≤ 0.2
23,PCMQ,≤ 0.2
24,KEHW,≤ 0.2

row,Variant,one-hybrid fitness for binding NBS DNA
1,EILR,≤ 0.2
2,VKIT,≤ 0.2
3,KVVR,≤ 0.2
4,PDMM,≤ 0.2
5,QRQK,0.365
6,GYWN,≤ 0.2
7,NTIM,≤ 0.2
8,PAYR,≤ 0.2
9,VTKW,≤ 0.2
10,TPCF,≤ 0.2
11,CYAG,≤ 0.2
12,RMLS,0.309
13,STLK,≤ 0.2
14,DEGS,≤ 0.2
15,IRTN,≤ 0.2
16,LKAT,≤ 0.2
17,QWTR,0.239
18,CVRR,≤ 0.2
